Assay results from paper PMC7819943, “Rice protein-binding microarrays: a tool to detect cis-acting elements near promoter regions in rice”.
The list shows a part of the results.

Each sequence was assayed against T1, OsWOX13 (Oryza sativa, UniProt Q5QMM3 1-267) (assay: protein-binding microarray (RPBM); PBS, 2% BSA, 51.3 ng/ul salmon testes DNA, 50 uM zinc acetate, 200 nM TF, 25 C, 1 h; high values mean tight binding). Conditions: protein: recombinant; tags: N-terminal polyhistidine and DsRed monomer fusion (pET32a); label: CyDye5-dUTP incorporated in the synthesized complementary strand; 3' TTTTT single-stranded linker to array surface; dsDNA, one strand shown.
T1 sequence: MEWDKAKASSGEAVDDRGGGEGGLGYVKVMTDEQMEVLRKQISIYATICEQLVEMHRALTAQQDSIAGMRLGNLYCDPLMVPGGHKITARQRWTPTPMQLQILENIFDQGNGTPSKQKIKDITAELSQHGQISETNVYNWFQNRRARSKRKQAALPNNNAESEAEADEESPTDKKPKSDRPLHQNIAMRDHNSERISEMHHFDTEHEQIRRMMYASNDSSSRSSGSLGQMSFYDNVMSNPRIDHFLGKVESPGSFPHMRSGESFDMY
Procedure, shortened: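 Transcription factors were each fused at the N-terminus to a polyhistidine tag plus DsRed and expressed in E. coli BL21-CodonPlus before Ni–NTA purification. Binding to a double-stranded custom Agilent array was carried out with 200 nM protein at 25 °C for 1 h in PBS, 2% BSA, salmon testes DNA and 50 µM zinc acetate. The binding signal is per-feature fluorescence intensity, in arbitrary units, on an Axon 4000B scanner.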
With “TTGATGGATAAGTGATTGGATGTGACTACAGAACAGTATTCGGAGTCACCTAGTGCAG” the binding signal was 49500 fluorescence intensity (a.u.). With “TTTTAATTTCTAATTTTCGTTATCTGTAGACTCTAGGCTCCGGAGTCACCTAGTGCAG” the binding signal was 18700 fluorescence intensity (a.u.). In the case of “TATATTTAATTTTATATGGATTTTACAAGTTTTAGGTACTCGGAGTCACCTAGTGCAG”, the binding signal was 5410 fluorescence intensity (a.u.). With “ACTTCAAGCAATTAGATAATTGTGTTGACTCCCAGTGAACCGGAGTCACCTAGTGCAG” the binding signal was 12300 fluorescence intensity (a.u.). With “TTCAAATTTCGATTTGTAAATTTGTCGCGGTTTTGCGCGGCGGAGTCACCTAGTGCAG” the binding signal was 12500 fluorescence intensity (a.u.). In the case of “GGCTTGTGTAATTGTTTATTAATTTCTTCCCACACTGCCCCGGAGTCACCTAGTGCAG”, the binding signal was 24000 fluorescence intensity (a.u.). In the case of “TTTTAAATTTGGATGGCTGTTTTGGACCTTCAGGTTCAGGCGGAGTCACCTAGTGCAG”, the binding signal was 3530 fluorescence intensity (a.u.). With “TGAATTTATGATTGGCAGATTGTACAATTGTATTAGCAATCGGAGTCACCTAGTGCAG” the binding signal was 40400 fluorescence intensity (a.u.). “TTCAGATAAATTGAGGAAATACGATGAGGAAGATCTATGCCGGAGTCACCTAGTGCAG” was tested, and the binding signal was 16700 fluorescence intensity (a.u.). With “TTGTAATTAAATCAGTGCATGGCTAGCCCTACCAACTTCACGGAGTCACCTAGTGCAG” the binding signal was 22400 fluorescence intensity (a.u.). With “TAAGTTTTAATTGAAATTTTGTTCACAAATACTCCAAATCCGGAGTCACCTAGTGCAG” the binding signal was 11900 fluorescence intensity (a.u.). With “ATCCTAATCAATTGGTCTCTAACCCTTCGATATACATCTGCGGAGTCACCTAGTGCAG” the binding signal was 15200 fluorescence intensity (a.u.). In the case of “TGTAATTAGATTGTAAATCGGATGAGTAATTTAAGAGAAACGGAGTCACCTAGTGCAG”, the binding signal was 34600 fluorescence intensity (a.u.). With “ATCCGAATTAACGAAATGGATTGGAAGAGAAGGAAGTTGGCGGAGTCACCTAGTGCAG” the binding signal was 16300 fluorescence intensity (a.u.). In the case of “ACTAATTTAAATTTCAAAATGTTACAAATTAGAGATTAGACGGAGTCACCTAGTGCAG”, the binding signal was 26100 fluorescence intensity (a.u.). In the case of “CTACAGCTAATTAAAACCGTGAAGTCACGATATCCTATAGCGGAGTCACCTAGTGCAG”, the binding signal was 6940 fluorescence intensity (a.u.). With “TAGGTTAATTTTCGTGTCAGATCAAACTCAGCGCTCCGTTCGGAGTCACCTAGTGCAG” the binding signal was 6280 fluorescence intensity (a.u.). With “ATAGATGAATGATTTAGAAGGCATGACAAATATGATACATCGGAGTCACCTAGTGCAG” the binding signal was 7050 fluorescence intensity (a.u.). “CAATAATCTGACAAATTTCAATCCTGGCATCCATGCATTTCGGAGTCACCTAGTGCAG” was tested, and the binding signal was 5970 fluorescence intensity (a.u.). For “TAAATTAATTATATACTAATGAGTCGCTTAGTTTTCCGTGCGGAGTCACCTAGTGCAG”, the binding signal was 42200 fluorescence intensity (a.u.). For “CATCGAGATTTTAATGACTGTCGGATTATATATGGGTTAACGGAGTCACCTAGTGCAG”, the binding signal was 6620 fluorescence intensity (a.u.). “TGAACAGACAGCAATTACCTTTCGTGTTCTCTTCTAGGAACGGAGTCACCTAGTGCAG” was tested, and the binding signal was 5710 fluorescence intensity (a.u.). With “GTTATTTACTGGAGATTGAGATACCGGCCGGCGGCCGTTGCGGAGTCACCTAGTGCAG” the binding signal was 3490 fluorescence intensity (a.u.). In the case of “GACCAATCATCAGAAGGAGAGAAATTTGCCAGATGCATGCCGGAGTCACCTAGTGCAG”, the binding signal was 14900 fluorescence intensity (a.u.). In the case of “ATTATACTATGATTGTACTGTAATTACATCTGTCAAATTTCGGAGTCACCTAGTGCAG”, the binding signal was 24500 fluorescence intensity (a.u.). “TCTGAAGAAAACCAATCAATTGTCCGGCCATACAAACTGCCGGAGTCACCTAGTGCAG” was tested, and the binding signal was 13100 fluorescence intensity (a.u.). For “CTCCAAATTACTAATTCAGAATATAGAAAGGCAAGCTCTGCGGAGTCACCTAGTGCAG”, the binding signal was 15000 fluorescence intensity (a.u.). In the case of “ACTGATAGAACCTGTAAAGCCAGTACGAGGCCCACCAGCACGGAGTCACCTAGTGCAG”, the binding signal was 4160 fluorescence intensity (a.u.). For “ATGACGTAATTAGGCTCAAAGATTCGTCTCGCAATTTACACGGAGTCACCTAGTGCAG”, the binding signal was 10700 fluorescence intensity (a.u.). In the case of “GTTGATTATTTACGTTGCATTCCTCCAGAACAATTCCTATCGGAGTCACCTAGTGCAG”, the binding signal was 31600 fluorescence intensity (a.u.). For “AGCAGAGAGACAGACAGACAGACAGGCAGACAGAGTGATCCGGAGTCACCTAGTGCAG”, the binding signal was 3160 fluorescence intensity (a.u.). In the case of “ATAAACAACCGTGCTAATTAGGTTGAACCAAGGCAAAAGGCGGAGTCACCTAGTGCAG”, the binding signal was 4690 fluorescence intensity (a.u.). In the case of “AATAATAATTTGACGTTGTTTGCATATTATTTAAAATACTCGGAGTCACCTAGTGCAG”, the binding signal was 8590 fluorescence intensity (a.u.). In the case of “AGAAAATGTAATTAAGAAAATAAGTAAAGTGGATAGGGTACGGAGTCACCTAGTGCAG”, the binding signal was 7170 fluorescence intensity (a.u.). With “AAAGCATTCATGTTAATTTTCTCCTAACTCAAATCGAATGCGGAGTCACCTAGTGCAG” the binding signal was 3260 fluorescence intensity (a.u.). For “GTATGATTGCAAATAAAATAATTTATAAATAATATATATACGGAGTCACCTAGTGCAG”, the binding signal was 3650 fluorescence intensity (a.u.). With “GCTCCAAAACTCTTATGATTGAATCGTTACATAGGAATTCCGGAGTCACCTAGTGCAG” the binding signal was 4380 fluorescence intensity (a.u.). For “GTGAGGCCAAGATTGACTTATTGGAAGGAAGGCTTGGAAGCGGAGTCACCTAGTGCAG”, the binding signal was 4590 fluorescence intensity (a.u.). In the case of “CTTATATATAAACTAACTGGAACATTTCCAATGAAACAGTCGGAGTCACCTAGTGCAG”, the binding signal was 3810 fluorescence intensity (a.u.). With “TAAAATGAGCATTAATCAATCGGTGATAGGTCTGGATGTACGGAGTCACCTAGTGCAG” the binding signal was 15400 fluorescence intensity (a.u.). With “CCGAATTTCTATTATTTCTTAATTGTATTTCTATATGGACCGGAGTCACCTAGTGCAG” the binding signal was 7410 fluorescence intensity (a.u.). For “CTAATGTTTATAAACCTAAAGTTTATAGACCCAAAGTTTACGGAGTCACCTAGTGCAG”, the binding signal was 9880 fluorescence intensity (a.u.). With “ACACTGATACTGTAACATCAATTATAGGATGAGTGAAAACCGGAGTCACCTAGTGCAG” the binding signal was 3300 fluorescence intensity (a.u.). “GGTTACCAACTAATTTGATATATAAATGAGTTTTGGGGTTCGGAGTCACCTAGTGCAG” was tested, and the binding signal was 13200 fluorescence intensity (a.u.). With “CACGATAATTTTCGTCGCACAAATCGTCGCCTCGTACGTGCGGAGTCACCTAGTGCAG” the binding signal was 9530 fluorescence intensity (a.u.). “TTAATTAGATGCTCATATAAATATGGTGAAACCTGCATGCCGGAGTCACCTAGTGCAG” was tested, and the binding signal was 21500 fluorescence intensity (a.u.). For “CGAAATATTTCAATAAATTAGTACCAAATTCTTATTGCAACGGAGTCACCTAGTGCAG”, the binding signal was 3310 fluorescence intensity (a.u.). For “CGGATTACTTATCGAAATTTTGATGATTTCGATCGGAATTCGGAGTCACCTAGTGCAG”, the binding signal was 4860 fluorescence intensity (a.u.). In the case of “CTAATTAACCACTTCCCAACCTTGGTAGGAAAACCTACGCCGGAGTCACCTAGTGCAG”, the binding signal was 4900 fluorescence intensity (a.u.). “CAACTAACAATCAACTGACGGGAGGGGTATGGAAGGGATCCGGAGTCACCTAGTGCAG” was tested, and the binding signal was 10400 fluorescence intensity (a.u.). For “TTTAATTATTCTGGGATGGAGGGAGTACATCGAAATCTTACGGAGTCACCTAGTGCAG”, the binding signal was 8800 fluorescence intensity (a.u.). “TAAAATTATGTAACTCTAAATTTATCATCACCCCAAGCATCGGAGTCACCTAGTGCAG” was tested, and the binding signal was 16500 fluorescence intensity (a.u.). “ATGTAATTTTATATCCAATAAAATTAAATTTGATATTTTACGGAGTCACCTAGTGCAG” was tested, and the binding signal was 10200 fluorescence intensity (a.u.). “AGGCTGCAGTGGATTGATGGATGGATGGGGATTCATTTGTCGGAGTCACCTAGTGCAG” was tested, and the binding signal was 5060 fluorescence intensity (a.u.).
